Assay results published in publication PMC2758247 (Biochemistry, 2009).

Target: T1, HscB from Escherichia coli (Escherichia coli, UniProt P0A6L9 1-171)
T1 sequence (looked up): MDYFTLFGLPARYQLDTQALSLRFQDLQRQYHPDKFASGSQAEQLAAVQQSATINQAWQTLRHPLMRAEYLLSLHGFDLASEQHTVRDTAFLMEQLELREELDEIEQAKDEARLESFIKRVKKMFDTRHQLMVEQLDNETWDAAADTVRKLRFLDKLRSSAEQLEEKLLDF
Assay: ITC

B1: apo-IscU(D39A) from Escherichia coli (natural protein, UniProt P0ACD4 1-128, looked up)
chain: MAYSEKVIDHYENPRNVGSFDNNDENVGSGMVGAPACGAVMKLQIKVNDEGIIEDARFKTYGCGSAIASSSLVTEWVKGKSLDEAQAIKNTDIAEELELPPVKIHCSILAEDAIKAAIADYKSKREAK
Question: With B1 as the binder, how does the Kd read?
Answer: ~10 µM

Question: What about the “stoichiometry N” value of the same binder?
Answer: 1
